From the supplement of paper PMC3334620 come the findings set out here.

In all, about 33,000 sequences were measured (“E-score (-0.5 to 0.5)”: median about -0.035, highest 2% from about 0.35 on). The list shows a part of the results.

For this experiment, the target named is T1, Pdr3 (UniProt P33200).
T1 sequence: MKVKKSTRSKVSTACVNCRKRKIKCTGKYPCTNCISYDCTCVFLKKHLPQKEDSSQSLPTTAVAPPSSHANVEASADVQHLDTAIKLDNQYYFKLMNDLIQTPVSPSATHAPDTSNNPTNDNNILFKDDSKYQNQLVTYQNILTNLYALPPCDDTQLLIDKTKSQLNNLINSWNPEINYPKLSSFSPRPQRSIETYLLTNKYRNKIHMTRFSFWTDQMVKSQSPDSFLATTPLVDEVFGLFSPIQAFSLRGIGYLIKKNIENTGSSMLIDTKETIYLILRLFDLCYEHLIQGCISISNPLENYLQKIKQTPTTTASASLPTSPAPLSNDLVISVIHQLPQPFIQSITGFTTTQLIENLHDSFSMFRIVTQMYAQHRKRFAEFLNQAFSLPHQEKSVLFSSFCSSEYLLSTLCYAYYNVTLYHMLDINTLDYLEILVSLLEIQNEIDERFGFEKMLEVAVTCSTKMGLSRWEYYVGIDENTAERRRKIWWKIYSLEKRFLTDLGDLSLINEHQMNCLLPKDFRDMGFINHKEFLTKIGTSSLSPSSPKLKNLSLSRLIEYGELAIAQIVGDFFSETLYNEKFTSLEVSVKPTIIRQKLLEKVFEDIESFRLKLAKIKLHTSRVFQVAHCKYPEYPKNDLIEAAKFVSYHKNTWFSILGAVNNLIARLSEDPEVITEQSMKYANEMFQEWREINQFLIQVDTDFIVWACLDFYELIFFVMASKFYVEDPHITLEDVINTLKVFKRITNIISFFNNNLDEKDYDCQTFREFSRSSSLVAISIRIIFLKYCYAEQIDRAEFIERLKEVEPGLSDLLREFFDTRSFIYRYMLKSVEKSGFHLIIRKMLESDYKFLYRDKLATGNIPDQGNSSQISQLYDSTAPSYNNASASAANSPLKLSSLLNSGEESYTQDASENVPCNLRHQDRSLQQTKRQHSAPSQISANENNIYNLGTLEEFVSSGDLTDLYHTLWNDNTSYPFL
Description: PBM E-score (8-mer binding enrichment) (E-score (-0.5 to 0.5)); higher = stronger / more preferred TF binding; most listed sequences are background and not binding sites. The conditions noted are these: protein concentration: 200 nM; construct: GST-full length. How it is done:
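Universal 'all 10-mer' protein binding microarrays (Agilent AMADID 015681) probed with GST-tagged S. cerevisiae TFs (full-length or DBD) made by in vitro transcription/translation (PURExpress), about 100-200 nM. Bound TF was detected with fluorescent anti-GST. Each ungapped 8-mer (which stands for itself and its reverse complement) is scored by the PBM enrichment score (E-score), a modified Wilcoxon-Mann-Whitney statistic from -0.5 to +0.5, computed with the Universal PBM Analysis Suite. Scale: above 0.35 generally sequence-specific binding.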
CAACGGGA: the “PBM E-score” value stood at 0.261.

CGACATCC: the “PBM E-score” value came out at 0.168.

As to AGATTTCC, the “PBM E-score” value worked out at 0.254.

Consider AAGGCAAA, for which the “PBM E-score” value was -0.0388.

As for ACGTTCTA, the “PBM E-score” value is -0.0866.

Take CTGGTCTA: the “PBM E-score” value is -0.254.

For GCCGACTA, the “PBM E-score” value was 0.106.

For AGTAGAAT, the “PBM E-score” value was -0.0759.

Regarding CCGCATCG, the “PBM E-score” value was 0.125.

Turning to TACGAGAA, the “PBM E-score” value was -0.0853.

In the case of TCGCGAAA, the “PBM E-score” value is 0.131.

On to TGAAATAA, for which the “PBM E-score” value is -0.122.

Regarding CTAAAATC, the “PBM E-score” value is -0.144.

GCTTTTAA: the “PBM E-score” value is -0.179.

With AACAGGAG, the “PBM E-score” value is -0.159.

As to CGCGTGAC, the “PBM E-score” value was determined as 0.0246.

Take GTGGTACA: the “PBM E-score” value is -0.188.

As to ACTAATCT, the “PBM E-score” value is -0.0786.

As for AGGCTGGA, the “PBM E-score” value was -0.262.

For the sequence CATCCGCC, the “PBM E-score” value came to 0.345.

Take ACACGATC: the “PBM E-score” value is -0.012.

For CCGTCATC, the “PBM E-score” value turned out to be 0.0897.

Take ATGATTCA: the “PBM E-score” value was -0.137.

AGATTAGA: the “PBM E-score” value was -0.255.

As for AAGTTCGT, the “PBM E-score” value was -0.177.

On to GAGCTGCA, for which the “PBM E-score” value turned out to be 0.00332.

In the case of ATGACCTA, the “PBM E-score” value is -0.152.

For CGCGCCCC, the “PBM E-score” value came to 0.236.

For GAATACCC, the “PBM E-score” value worked out at 0.272.

With CTTTATAC, the “PBM E-score” value came out at 0.0268.

Turning to ACAAGTAA, the “PBM E-score” value was -0.212.

Regarding CGCCAGAC, the “PBM E-score” value is 0.00951.

For CAGACTCC, the “PBM E-score” value is -0.146.

Take GTGAGAGA: the “PBM E-score” value was -0.0904.

As for ACGTGACC, the “PBM E-score” value is -0.0751.

With ACCCTGAG, the “PBM E-score” value is -0.126.

As to ATAACTAG, the “PBM E-score” value is -0.01.

As for GACGCACA, the “PBM E-score” value was determined as 0.0366.

As for CTATGATC, the “PBM E-score” value is -0.0603.

With ACACCTCA, the “PBM E-score” value was -0.187.

In the case of ACCGGCTC, the “PBM E-score” value worked out at 0.122.

Take ACTCTCGG: the “PBM E-score” value was found to be 0.238.

For TCCGAAAA, the “PBM E-score” value was found to be 0.248.

Consider GAATCGGC, for which the “PBM E-score” value is 0.278.

Regarding CAAAGACC, the “PBM E-score” value is -0.129.

As for CACCCATA, the “PBM E-score” value is -0.239.

For the sequence GATGGACA, the “PBM E-score” value is -0.0186.

CCAGGTTA: the “PBM E-score” value was -0.0429.

For GTTCAAAA, the “PBM E-score” value is -0.0918.

Turning to CGATACTA, the “PBM E-score” value worked out at 0.13.

Turning to AGCTTCGG, the “PBM E-score” value was 0.162.

On to ATGATTGC, for which the “PBM E-score” value was determined as 0.112.

For CACTATCG, the “PBM E-score” value was -0.02.

Regarding TGATGGCA, the “PBM E-score” value is -0.149.

For the sequence CTCCGCAA, the “PBM E-score” value was found to be 0.14.

As to AGAAGATA, the “PBM E-score” value stood at 0.0757.

In the case of CGTTTATA, the “PBM E-score” value was 0.0583.

Consider CCATTAAA, for which the “PBM E-score” value amounted to 0.111.

In the case of CACTGGCC, the “PBM E-score” value was -0.0792.

As to CCTCGAGG, the “PBM E-score” value was 0.0706.

Take CTTCCGGC: the “PBM E-score” value was 0.398.

As to GATAAGCA, the “PBM E-score” value is -0.00222.

With ACGCAGCA, the “PBM E-score” value is -0.102.

For AGGCACAC, the “PBM E-score” value is -0.133.

For CATCTGAG, the “PBM E-score” value is -0.0983.

As to AGGGGTGC, the “PBM E-score” value is -0.0873.

For the sequence CACCCGGC, the “PBM E-score” value turned out to be 0.234.

As to GTCCGGAC, the “PBM E-score” value turned out to be 0.481.

With CTCGCCAG, the “PBM E-score” value is -0.0847.

As to GTTCCAAC, the “PBM E-score” value stood at 0.103.

Regarding ACTCGCTG, the “PBM E-score” value is 0.0455.

With ACCTCAGG, the “PBM E-score” value was -0.176.

For ACCAATCG, the “PBM E-score” value amounted to 0.0772.

As to AGAATGAC, the “PBM E-score” value was -0.125.

For the sequence CAGAGGCG, the “PBM E-score” value is -0.154.

With AAGTGAAT, the “PBM E-score” value was 0.135.

Turning to CAGTCTTC, the “PBM E-score” value is -0.147.

In the case of TAGTTACA, the “PBM E-score” value was -0.175.

For GCGGACAA, the “PBM E-score” value came to 0.305.

As for AAGAGTTG, the “PBM E-score” value was -0.0207.

Take AGTATGCA: the “PBM E-score” value is -0.0811.

With CACTCGAA, the “PBM E-score” value was -0.181.

As for CTCTACCA, the “PBM E-score” value was -0.05.

Take AGTAGTGA: the “PBM E-score” value was -0.0139.

Turning to AGAGGGAT, the “PBM E-score” value was -0.304.

For the sequence AGGGAGGG, the “PBM E-score” value was -0.0143.

With GGCTATCA, the “PBM E-score” value was -0.0816.

Turning to CTCTCGAA, the “PBM E-score” value was -0.197.

For GTGAACTA, the “PBM E-score” value is -0.0747.

As for CGGAAGAG, the “PBM E-score” value worked out at 0.365.

Turning to GGATATGA, the “PBM E-score” value came to 0.148.

On to ACAAACTC, for which the “PBM E-score” value is 0.0698.

For the sequence AAAAATAC, the “PBM E-score” value worked out at 0.00079.

On to ACCTACGG, for which the “PBM E-score” value is -0.0477.
